Experimental data taken from the supplement of paper PMC11369174, “Proteome-scale characterisation of motif-based interactome rewiring by disease mutations” (Molecular Systems Biology, 2024).
This is one part of the list. This is a noisy data set.

Target: T1, ZMYND11_coiled-coil-MYND__Q15326_480_602
T1 chain: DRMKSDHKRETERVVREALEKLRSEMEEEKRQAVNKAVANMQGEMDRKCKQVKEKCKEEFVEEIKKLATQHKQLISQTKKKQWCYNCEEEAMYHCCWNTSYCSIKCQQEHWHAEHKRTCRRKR
Assay: mutation enrichment score (mutant vs wild-type peptide binding to bait); baits are purified protein domains named by gene / domain / UniProt id / residues; peptides come from disordered regions of human proteins; higher = mutation enhances binding relative to wild type
Settings: wild-type window: …

[1] = number of wild-type / mutant comparisons summed (bounds the score): 12, paper call: no_effect

**Q.** For KIKKSTPAAGQPPHLTSAQDHDTISELASCLQRARELGARV [Q117H Q117H], which mutation enrichment score [1] is on record?
**A.** -0.77

**Q.** For PLHPTPPPASTAAGMPSLQHSTPPGMTPPQPAAPTQPSTPV [T872S T872S], which mutation enrichment score (number of wild-type / mutant comparisons summed (bounds the score): 18, paper call: no_effect) is on record?
**A.** 2.7

**Q.** For IPAGGITTDQQPPNLISESAIPTSLGATNPLMNDGSNSGNI [L551I L551I], which mutation enrichment score [1] is on record?
**A.** 4.6

**Q.** With MAAQVAAREARDFREAPTLRSTSGAGLEAVGAVELEEEEE [R20S R20S] as the binder, how does the mutation enrichment score (number of wild-type / mutant comparisons summed (bounds the score): 18, paper call: enhanced) read?
**A.** 6

**Q.** Which mutation enrichment score [1] does the source give for GFRLEEYLIGQSIGKGCSAAGYEATMPTLPQNLEVTKSTGL [V170G V170G] here?
**A.** 3.2
